Experimental findings from PMC5892938 are described below.

This is one part of the list. At the low end of the ranking the order means little.

The target of the test is GST-SBP-SLBP (stem-loop binding protein) (UniProt Q14493). In words: targeted RNA Bind-n-Seq.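 Also: DESeq read counts versus GST-SBP nonspecific binding control pulldown.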 To be noted: RBNS binding buffer: 25 mM Tris pH 7.5, 150 mM KCl, 3 mM MgCl2, 0.1% Tween, 0.5 mg/mL BSA, 1 mM DTT; 27 nM protein, 750 pM RNA pool; temperature not stated; high values mean tight binding.
On to “GGUCACGUCUCAAUCAACUCAUUCUCCAGGGAAAUCCCUGGUAAUUUCAACAGCUCGCAGUCAAG”, for which the binding signal (log2 fold change) is -0.0744.

With “GGUCACGUCUCAAUCAACUCAACAGAGGGGGGGAAAACCCCUUUACCCUCAUCGUCAACAGCUCGCAGUCAAG”, the binding signal (log2 fold change) was -0.455.

With “GGUCACGUCUCAAUCAACUCAAAAGAGGGGGGGAAAACCCCUUUACCCUCAACUUCAACAGCUCGCAGUCAAG”, the binding signal (log2 fold change) was -0.277.

For “GGUCACGUCUCAAUCAACUCUAGUCCAGGAGUUUACUCCUGCAUAUUCAACAGCUCGCAGUCAAG”, the binding signal (log2 fold change) was found to be 0.0192.

As for “GGUCACGUCUCAAUCAACUCAUCUUCAGGAGUUUCCUCCUGUAUUUUCAACAGCUCGCAGUCAAG”, the binding signal (log2 fold change) was -0.1.

For the sequence “GGUCACGUCUCAAUCAACUCGUCUUCAGGAGUUUCCUCCUGCAUUUUCAACAGCUCGCAGUCAAG”, the binding signal (log2 fold change) worked out at 0.145.

Take “GGUCACGUCUCAAUCAACUCAAUUUCAGGAGUUUUCUCCUGCUAAGUCAACAGCUCGCAGUCAAG”: the binding signal (log2 fold change) was 0.047.

On to “GGUCACGUCUCAAUCAACUCAUUUCCCAGGGAAAGCCCUGGUAUUUUCAACAGCUCGCAGUCAAG”, for which the binding signal (log2 fold change) amounted to 0.159.

Take “GGUCACGUCUCAAUCAACUCUACUUCAGGAGUUUACUCCUGCAAUCUCAACAGCUCGCAGUCAAG”: the binding signal (log2 fold change) was found to be 0.103.

Consider “GGUCACGUCUCAAUCAACUCUCUAGAGGGGGGGAAAACCCCUUUACCCUCAACAUCAACAGCUCGCAGUCAAG”, for which the binding signal (log2 fold change) is -0.2.

Consider “GGUCACGUCUCAAUCAACUCAACGCCAGGAGUUUCCUCCUGUAUACUCAACAGCUCGCAGUCAAG”, for which the binding signal (log2 fold change) is 0.128.

“GGUCACGUCUCAAUCAACUCUUAAGAGGGGGGGAAAACCCCUUUACCCUCAAUUUCAACAGCUCGCAGUCAAG”: the binding signal (log2 fold change) was -0.121.

Take “GGUCACGUCUCAAUCAACUCAUCUCCCAGGGAAAGCCCUGGUAAACUCAACAGCUCGCAGUCAAG”: the binding signal (log2 fold change) is -0.377.

Regarding “GGUCACGUCUCAAUCAACUCUUUUUCCAGGGAAACCCCUGGUUAUUUCAACAGCUCGCAGUCAAG”, the binding signal (log2 fold change) was -0.21.

Regarding “GGUCACGUCUCAAUCAACUCUUUUCCCAGGGAAAGCCCUGGCUAUGUCAACAGCUCGCAGUCAAG”, the binding signal (log2 fold change) was -0.00756.

In the case of “GGUCACGUCUCAAUCAACUCAUCCCCAGGAGUUUUCUCCUGUAUACUCAACAGCUCGCAGUCAAG”, the binding signal (log2 fold change) is 0.0156.

For “GGUCACGUCUCAAUCAACUCAAAAGAGGGGGGGAAAACCCCUUUACCCUCCAUGUCAACAGCUCGCAGUCAAG”, the binding signal (log2 fold change) is -0.293.

As to “GGUCACGUCUCAAUCAACUCUUCGGAGGGGGGGAAAACCCCUUUACCCUCAUACUCAACAGCUCGCAGUCAAG”, the binding signal (log2 fold change) is -0.315.

In the case of “GGUCACGUCUCAAUCAACUCUUUCUCCAGGGAAAUCCCUGGCUUACUCAACAGCUCGCAGUCAAG”, the binding signal (log2 fold change) is -0.0721.

Regarding “GGUCACGUCUCAAUCAACUCAUAAGAGGGGGGGAAAACCCCUUUACCCUCAAACUCAACAGCUCGCAGUCAAG”, the binding signal (log2 fold change) is -0.233.

In the case of “GGUCACGUCUCAAUCAACUCCAACGAGGGGGGGAAAACCCCUUUACCCUCUCCAUCAACAGCUCGCAGUCAAG”, the binding signal (log2 fold change) was 0.00628.

On to “GGUCACGUCUCAAUCAACUCAAUUUCCAGGGAAAUCCCUGGCAUUUUCAACAGCUCGCAGUCAAG”, for which the binding signal (log2 fold change) was -0.0666.

On to “GGUCACGUCUCAAUCAACUCAGUUCCCAGGGAAAGCCCUGGCAUUUUCAACAGCUCGCAGUCAAG”, for which the binding signal (log2 fold change) turned out to be 0.449.

Regarding “GGUCACGUCUCAAUCAACUCAACUCCCAGGGAAACCCCUGGUUUACUCAACAGCUCGCAGUCAAG”, the binding signal (log2 fold change) is 0.0126.

As to “GGUCACGUCUCAAUCAACUCAUCGUCAGGAGUUUUCUCCUGUAAUUUCAACAGCUCGCAGUCAAG”, the binding signal (log2 fold change) is -0.153.

On to “GGUCACGUCUCAAUCAACUCAAAAGAGGGGGGGAAAACCCCUUUGCCCUCCAUUUCAACAGCUCGCAGUCAAG”, for which the binding signal (log2 fold change) stood at 0.219.

Regarding “GGUCACGUCUCAAUCAACUCCAAAGAGGGGGGGAAAACCCCUUUACCCUCGAAUUCAACAGCUCGCAGUCAAG”, the binding signal (log2 fold change) is -0.144.

As for “GGUCACGUCUCAAUCAACUCCAAAGAGGGGGGGAAAACCCCUUUGCCCUCAUCGUCAACAGCUCGCAGUCAAG”, the binding signal (log2 fold change) was -0.256.

Regarding “GGUCACGUCUCAAUCAACUCAUAAGAGGGGGGGAAAACCCCUUUGCCCUCAUCAUCAACAGCUCGCAGUCAAG”, the binding signal (log2 fold change) was -0.311.

For the sequence “GGUCACGUCUCAAUCAACUCAUUUUCCAGGGAAACCCCUGGCAAUUUCAACAGCUCGCAGUCAAG”, the binding signal (log2 fold change) was -0.016.

Consider “GGUCACGUCUCAAUCAACUCUUCCUCAGGAGUUUACUCCUGCUAUUUCAACAGCUCGCAGUCAAG”, for which the binding signal (log2 fold change) was determined as 0.0966.

For “GGUCACGUCUCAAUCAACUCAACUCCAGGAGUUUGCUCCUGCUUAUUCAACAGCUCGCAGUCAAG”, the binding signal (log2 fold change) is 0.000444.

For the sequence “GGUCACGUCUCAAUCAACUCAAUUUCAGGAGUUUUCUCCUGCAUAUUCAACAGCUCGCAGUCAAG”, the binding signal (log2 fold change) was -0.0376.

With “GGUCACGUCUCAAUCAACUCAAUUCCAGGAGUUUACUCCUGCAAAUUCAACAGCUCGCAGUCAAG”, the binding signal (log2 fold change) is 0.12.

With “GGUCACGUCUCAAUCAACUCAACGCCAGGAGUUUUCUCCUGCAAAUUCAACAGCUCGCAGUCAAG”, the binding signal (log2 fold change) was -0.0289.

Take “GGUCACGUCUCAAUCAACUCUCAAGAGGGGGGGAAAACCCCUUUACCCUCGUACUCAACAGCUCGCAGUCAAG”: the binding signal (log2 fold change) is 0.0261.

“GGUCACGUCUCAAUCAACUCCUCAGAGGGGGGGAAAACCCCUUUACCCUCACACUCAACAGCUCGCAGUCAAG”: the binding signal (log2 fold change) turned out to be 0.102.
